± gives the standard deviation. The entries are a selection whose mix differs from that of the whole data set.
system: MIWI (PIWIL1) piRISC loaded with L1MC piRNA (30 nt); assay: pre-steady-state target cleavage rate (min^-1); MIWI and MILI are mouse PIWI proteins and EfPiwi is from a freshwater sponge; tags in brackets are library labels; higher = faster piRNA-guided slicing of the target; conditions: guide: L1MC piRNA 5'p-UAACUAAAUACUAUGCAAGCUGUAGGUCCU; auxiliary factor: 500 nM mouse GTSF1
Method in brief: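 Cleave-'n-Seq: 1 nM active affinity-purified piRISC with one synthetic guide and 0.1 nM transcribed, DNA-blocked target RNA library were mixed, with or without 500 nM GTSF1 partner protein, in HEPES–potassium acetate buffer at 33 °C for 0–8 or 0–960 min. Uncleaved targets were sequenced and normalised to depth and to weakly complementary targets, three trials were pooled, and k3 was capped at 0.0001 min^-1. The pre-steady-state cleavage rate was fitted […].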

First: UCCUGGUACAGCUAGCAUAGUAUUUAGAAA
Second: UCCUGGUACAGCUUGCAUAGAUUUUAGAAA
The “pre-steady-state target cleavage rate” value of the first is higher: 0.293 ± 0.051 for the first, 0.00753 ± 0.0052 for the second.

Compared with UCCACCUACAGCUUGCAUUGUAUUUUCAAA, UCCUGGUACAGCUUCGUUAGUAUUUAGUAA is lower in “pre-steady-state target cleavage rate” value: 0.102 ± 0.018 for the first, 0.0157 ± 0.0067 for the second.

Compared with UCCUCCUACAGCUUGCAUAGUUUUAGUUA, UCCUGGAUCAGCUUCGAUAGUAUUUAGUUA is higher in “pre-steady-state target cleavage rate” value: 0.0154 ± 0.0079 for the first, 0.0375 ± 0.008 for the second.

Going from UCCUGGAUGUCGUUGCAUAGUAUUAGUUA to UCCACCAUGAGCUUGCAUAGUAUUUUCAAA, the “pre-steady-state target cleavage rate” value rises from under 0.0001 to 0.183 ± 0.033.

Compared with UGGACCUACACGAUGCAUAGUAUUUUCAAA, UCGACCUACAGCUUGCAUAGAAUUUACAAA is higher in “pre-steady-state target cleavage rate” value: 0.0643 ± 0.014 for the first, 0.392 ± 0.057 for the second.

Going from AGGACCUACAGCUUCCAUAGUAAUUAGUUA to UCCACCUACAGCUAGCAUAGUAUUUUCAAA, the “pre-steady-state target cleavage rate” value rises from 0.117 ± 0.036 to 0.305 ± 0.039.

Compared with UCCUGGUACUCCUUGCAUAGUAUUUUCAAA, UCCACCUACAGCAUGCAUAGUAUUUACAAA is higher in “pre-steady-state target cleavage rate” value: 0.0158 ± 0.0069 for the first, 0.375 ± 0.058 for the second.

Going from UCCACCUACAGCUUGCAUAGUAUUAUGAAA to UCCUGGUUGUGCUUGCAUAGUAUUUUCAAA, the “pre-steady-state target cleavage rate” value falls from 0.234 ± 0.04 to 0.00948 ± 0.0058.

UCCUGGAUCAGCUUGCAUAGUAAAAAGUUA and UCCUCCUACAGCUUGCAUAGUUAUUACAAA are within error of each other in “pre-steady-state target cleavage rate” value: 0.0272 ± 0.0069 for the first, 0.0164 ± 0.007 for the second.

Compared with AGGACCUACAGCUUGGUUAGUAUUUAGAAA, UCCUGGUACUCGUUGCAUAGUAUUUAGUUA is lower in “pre-steady-state target cleavage rate” value: 0.301 ± 0.052 for the first, 0.0743 ± 0.031 for the second.

Compared with UCCUGGAUGUCCUUGCAUAGUAUUUAGUCUA, UCCACCUACAGCUUGCUUAGUAUUUACAAA is higher in “pre-steady-state target cleavage rate” value: 0.0125 ± 0.0042 for the first, 0.233 ± 0.036 for the second.

Compared with UCCACCUACAGCUUGCAUAGUAUAUAGAUA, UCGACCUACAGCUUGCAUAGUAAAAUCAAA is lower in “pre-steady-state target cleavage rate” value: 0.428 ± 0.087 for the first, 0.159 ± 0.039 for the second.
